Assay results reported in PubChem BioAssay AID504332 (National Center for Advancing Translational Sciences (NCATS), 2011).
Among all 350,000 compounds or so, about 31,000 (8.9%) were called active. Inconclusive results, whose numbers are uncertain, are shown with a selection of clear calls. The call rests on the fitted dose curve; in most records, active means well fitted inhibition curve with a large enough effect; inconclusive means small, poorly fitted or top-dose-only effect; inactive means no such curve, though single readings can be large or run the other way. Where the call is inconclusive, the potency comes from a doubtful curve fit.

Each molecule was assayed against Histone-lysine N-methyltransferase EHMT2 (Homo sapiens) (UniProt Q96KQ7) (assay: qHTS Assay for Inhibitors of Histone Lysine Methyltransferase G9a). Conditions: G9a H3K9 monomethylation, AlphaScreen, 2 h; activity, negative = inhibition: at 59 µM (top of the series) unless noted.
Chain of UniProt Q96KQ7 (Q96KQ7 whole entry, looked up): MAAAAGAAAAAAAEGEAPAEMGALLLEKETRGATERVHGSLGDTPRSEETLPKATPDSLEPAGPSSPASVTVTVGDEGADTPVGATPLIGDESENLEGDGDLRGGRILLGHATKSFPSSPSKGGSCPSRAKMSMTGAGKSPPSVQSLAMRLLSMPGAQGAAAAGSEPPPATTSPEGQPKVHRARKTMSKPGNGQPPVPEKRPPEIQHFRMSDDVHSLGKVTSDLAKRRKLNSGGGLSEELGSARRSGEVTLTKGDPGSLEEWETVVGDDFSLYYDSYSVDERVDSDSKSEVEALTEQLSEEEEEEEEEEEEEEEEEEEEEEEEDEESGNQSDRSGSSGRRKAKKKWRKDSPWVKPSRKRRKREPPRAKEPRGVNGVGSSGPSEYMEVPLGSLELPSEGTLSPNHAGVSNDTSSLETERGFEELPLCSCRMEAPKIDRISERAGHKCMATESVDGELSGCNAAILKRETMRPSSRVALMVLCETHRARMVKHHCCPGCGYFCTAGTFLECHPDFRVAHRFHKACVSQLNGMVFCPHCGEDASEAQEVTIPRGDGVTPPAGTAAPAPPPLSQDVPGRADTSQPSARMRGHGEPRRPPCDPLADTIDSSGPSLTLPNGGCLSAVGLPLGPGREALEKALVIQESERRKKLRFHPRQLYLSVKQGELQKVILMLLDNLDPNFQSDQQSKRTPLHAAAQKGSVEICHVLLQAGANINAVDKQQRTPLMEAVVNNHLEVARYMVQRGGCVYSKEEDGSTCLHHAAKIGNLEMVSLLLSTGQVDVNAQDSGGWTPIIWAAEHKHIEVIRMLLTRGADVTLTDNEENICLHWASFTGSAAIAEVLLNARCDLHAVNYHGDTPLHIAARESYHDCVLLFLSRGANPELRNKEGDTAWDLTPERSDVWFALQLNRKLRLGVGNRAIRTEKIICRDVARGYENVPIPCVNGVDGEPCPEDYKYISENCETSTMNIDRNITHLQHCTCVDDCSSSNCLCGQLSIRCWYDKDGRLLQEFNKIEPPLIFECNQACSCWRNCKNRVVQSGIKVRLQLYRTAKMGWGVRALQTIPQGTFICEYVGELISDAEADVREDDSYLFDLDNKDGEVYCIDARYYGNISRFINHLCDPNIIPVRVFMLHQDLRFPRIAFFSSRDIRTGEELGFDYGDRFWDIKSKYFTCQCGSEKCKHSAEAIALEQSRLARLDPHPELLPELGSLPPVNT
In short: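 AlphaScreen read-out: biotin-H3K9 peptide (500 nM) methylation by 20 nM enzyme with 20 uM SAM, 2 h at room temperature after 15 min compound preincubation; anti-monomethyl H3K9 antibody plus donor/acceptor beads, 10 min dark.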
Further: nearly all actives have a fitted effect of over 75% in size.
On the % scale 0 is the no-effect control and ±100 the full control effect; potency means the concentration at half of the fitted maximal effect; tags describe the fitted curve by direction and shape.

SMILES | activity, negative = inhibition | Potency
CCc1ccc(NC(=O)C2CCN(S(=O)(=O)c3cccc(-c4noc(C)n4)c3)CC2)cc1 | inactive: -0.418% | –
O=C(CNc1ccc2ccccc2c1)N/N=C/c1ccc([N+](=O)[O-])o1 | – | active: 2.51 µM
COc1cc2c(cc1O)CCN[C@@]21CS[C@H]2c3c(OC(C)=O)c(C)c4c(c3C(COC1=O)N1C2C2c3c(cc(C)c(OC)c3O)CC([C@@H]1O)N2C)OCO4 (some centres undefined) | – | inconclusive: 2.51 µM [inhibitor, partial curve, poor fit]
O=C(Nn1cnnc1)c1cc(Br)ccc1Cl | – | inconclusive: 39.8 µM [inhibitor, partial curve]
CC(C)OC(=O)CSc1nc2ccccc2s1 | inactive: -46.4% [at 12.7 µM] | –
O=C(C1=C(O)C(=O)N(CCc2ccccc2)C1c1ccncc1)c1cc2ccccc2o1 (centres undefined) | inconclusive: -87.7% [inhibitor] | –
CC12CCC(=O)N1C(C(=O)Nc1nc(-c3ccc(F)cc3)cs1)CS2 (centres undefined) | inactive: -3% | –
O=[N+]([O-])c1ccc(COc2cccc(CNc3ccc(Br)cc3)c2)cc1 | – | active: 44.7 µM
Cc1[nH]c2ccc(F)cc2c1CCN(Cc1ccncc1)C(=S)Nc1ccc(F)cc1 | – | inconclusive: 56.2 µM [inhibitor, partial curve, poor fit]
COc1cc(C=O)cc(Cl)c1OC(=O)N1CCOCC1 | inactive: 41% [at 102 µM] | –
COc1ccc(-c2cc(C(=O)N(C)CC(=O)Nc3cccc(F)c3)c3ccccc3n2)cc1 | – | inconclusive: 89.1 µM [inhibitor, single point]
COc1ccc(NC(=S)N(CCc2c(C)[nH]c3ccc(C)cc23)Cc2cccs2)cc1 | – | active: 50.1 µM
CCOc1ccc(OCC)c(Nc2cc(C)nc3ncnn23)c1 | – | inconclusive: 39.8 µM [inhibitor, single point]
CCOC(=O)c1ccccc1NC(=O)COC(=O)CN1C(=O)C2CC=CCC2C1=O (centres undefined) | inactive: 17.2% [at 102 µM] | –
CCc1ccc(NC(=O)C(CC)Sc2nc3cc4c(cc3c(=O)n2Cc2ccco2)OCO4)cc1 (centres undefined) | inactive: -12% [at 102 µM] | –
CCCCNS(=O)(=O)c1ccc2nc(SCC(=O)Nc3ccccc3Cl)[nH]c2c1 | inactive: -21.6% [at 102 µM] | –
Cc1cc(C)c2nc(NC(=O)c3cc(C)on3)sc2c1 | – | inconclusive: 89.1 µM [inhibitor, single point]
CCOC(=O)c1sc(NC(=O)C2CC(=O)N(c3ccc(C)cc3)C2)nc1C (centres undefined) | – | inconclusive: 89.1 µM [inhibitor, single point]
CCN(CC)CCNC(=O)c1ccc(NC(=O)c2ccccc2-c2ccc(C(F)(F)F)cc2)cc1 | – | inconclusive: 39.8 µM [inhibitor, partial curve]
